The values that follow come from the supplement of paper PMC4604168 (melanoma cell lines).

This is one part of the list. Many values rest on one well or one pass, so single values are uncertain.
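Also: cells treated in 1,536-well plates, then fixed and DAPI-stained, with nuclei counted from automated high-throughput microscope images.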

The test system of this assay is MEL-HO. As to the kind of experiment: cell count relative to DMSO control; melanoma cells; higher = more viable cells. Particulars: library dose: standard library concentration; 72 h.
`Cc1cc(Nc2cc(N3CCN(C)CC3)nc(Sc3ccc(NC(=O)C4CC4)cc3)n2)n[nH]1` [Tozasertib] + CC(=O)O[C@@]12CO[C@@H]1C[C@H](O)[C@@]1(C)C(=O)[C@H](O)C3=C(C)[C@@H](OC(=O)[C@H](O)[C@@H](NC(=O)OC(C)(C)C)c4ccccc4)C[C@@](O)([C@@H](OC(=O)c4ccccc4)[C@H]21)C3(C)C [Docetaxel] (first compound 0.03 µM, partner dose 0.0005 µM): the cell count was found to be 42%. `CC[C@]1(O)C[C@H]2CN(CCc3c([nH]c4ccccc34)[C@@](C(=O)OC)(c3cc4c(cc3OC)N(C=O)[C@H]3[C@@](O)(C(=O)OC)[C@H](OC(C)=O)[C@]5(CC)C=CCN6CC[C@]43[C@@H]65)C2)C1` [vincristine] + Oc1nc(-c2ccc(C(F)(F)F)cc2)nc2c1CSCC2 [XAV939] (first compound 0.0005 µM, partner dose 10 µM) returned a cell count of 83.9%.

`CC[C@]1(O)C[C@H]2CN(CCc3c([nH]c4ccccc34)[C@@](C(=O)OC)(c3cc4c(cc3OC)N(C=O)[C@H]3[C@@](O)(C(=O)OC)[C@H](OC(C)=O)[C@]5(CC)C=CCN6CC[C@]43[C@@H]65)C2)C1` [vincristine] + c1cc(-c2cnn3cc(-c4ccc(OCCN5CCCCC5)cc4)cnc23)ccn1 [Dorsomorphin] (first compound 0.0005 µM, partner dose 2 µM) gave a cell count of 63.5%. For `Cc1cc(Nc2cc(N3CCN(C)CC3)nc(Sc3ccc(NC(=O)C4CC4)cc3)n2)n[nH]1` [Tozasertib] + COc1ccc(-c2ccc3c(N4CCOCC4)nc(N4C[C@@H](C)O[C@@H](C)C4)nc3n2)cc1CO [KU0063794] (first compound 0.03 µM, partner dose 0.1 µM), the cell count was 78.4%.

With `CC[C@]1(O)C[C@H]2CN(CCc3c([nH]c4ccccc34)[C@@](C(=O)OC)(c3cc4c(cc3OC)N(C=O)[C@H]3[C@@](O)(C(=O)OC)[C@H](OC(C)=O)[C@]5(CC)C=CCN6CC[C@]43[C@@H]65)C2)C1` [vincristine] + O=C(Nc1cc(C(F)(F)F)cc(C(F)(F)F)c1)c1cc(Cl)ccc1O [IMD0354] (first compound 0.0005 µM, partner dose 0.08 µM), the cell count amounted to 86.5%. `N#CC[C@H](C1CCCC1)n1cc(-c2ncnc3[nH]ccc23)cn1` [ruxolitinib] + Nc1cccc2c1CN(C1CCC(=O)NC1=O)C2=O [lenalidomide] (first compound 5 µM, partner dose 5 µM): the cell count is 89.3%.

With `CC[C@]1(O)C[C@H]2CN(CCc3c([nH]c4ccccc34)[C@@](C(=O)OC)(c3cc4c(cc3OC)N(C=O)[C@H]3[C@@](O)(C(=O)OC)[C@H](OC(C)=O)[C@]5(CC)C=CCN6CC[C@]43[C@@H]65)C2)C1` [vincristine] + COCC[n+]1c2c(n(Cc3cnccn3)c1C)C(=O)c1ccccc1C2=O [YM155] (first compound 0.0005 µM, partner dose 0.002 µM), the cell count amounted to 98.9%. In turn, `Cc1cc(Nc2cc(N3CCN(C)CC3)nc(Sc3ccc(NC(=O)C4CC4)cc3)n2)n[nH]1` [Tozasertib] + O=C(CCCCCCC(=O)Nc1ccccc1)NO [vorinostat] (first compound 0.03 µM, partner dose 0.4 µM) registered a cell count of 72.4%. Compound `N#CC[C@H](C1CCCC1)n1cc(-c2ncnc3[nH]ccc23)cn1` [ruxolitinib] + CN(c1ncccc1CNc1nc(Nc2ccc3c(c2)CC(=O)N3)ncc1C(F)(F)F)S(C)(=O)=O [PF562271] (first compound 5 µM, partner dose 0.4 µM) came in with a cell count of 72.7%. Turning to `N#CC[C@H](C1CCCC1)n1cc(-c2ncnc3[nH]ccc23)cn1` [ruxolitinib] + CC(=O)O[C@@]12CO[C@@H]1C[C@H](O)[C@@]1(C)C(=O)[C@H](O)C3=C(C)[C@@H](OC(=O)[C@H](O)[C@@H](NC(=O)OC(C)(C)C)c4ccccc4)C[C@@](O)([C@@H](OC(=O)c4ccccc4)[C@H]21)C3(C)C [Docetaxel] (first compound 5 µM, partner dose 0.0005 µM), the cell count turned out to be 42.7%.

Compound `N#CC[C@H](C1CCCC1)n1cc(-c2ncnc3[nH]ccc23)cn1` [ruxolitinib] + C=C(c1ccc(C(=O)O)cc1)c1cc2c(cc1C)C(C)(C)CCC2(C)C [Bexarotene] (first compound 5 µM, partner dose 10 µM) yielded a cell count of 68.8%. `CC[C@]1(O)C[C@H]2CN(CCc3c([nH]c4ccccc34)[C@@](C(=O)OC)(c3cc4c(cc3OC)N(C=O)[C@H]3[C@@](O)(C(=O)OC)[C@H](OC(C)=O)[C@]5(CC)C=CCN6CC[C@]43[C@@H]65)C2)C1` [vincristine] + O=S(=O)(c1ccccc1)N(CC(F)(F)F)c1ccc(C(O)(C(F)(F)F)C(F)(F)F)cc1 [T0901317] (first compound 0.0005 µM, partner dose 7 µM): the cell count stood at 93.2%.

Compound `Cc1cc(Nc2cc(N3CCN(C)CC3)nc(Sc3ccc(NC(=O)C4CC4)cc3)n2)n[nH]1` [Tozasertib] + COc1ccc(C2=N[C@@H](c3ccc(Cl)cc3)[C@@H](c3ccc(Cl)cc3)N2C(=O)N2CCNC(=O)C2)c(OC(C)C)c1 [Nutlin-3] (first compound 0.03 µM, partner dose 0.5 µM) gave a cell count of 101%. `CC[C@]1(O)C[C@H]2CN(CCc3c([nH]c4ccccc34)[C@@](C(=O)OC)(c3cc4c(cc3OC)N(C=O)[C@H]3[C@@](O)(C(=O)OC)[C@H](OC(C)=O)[C@]5(CC)C=CCN6CC[C@]43[C@@H]65)C2)C1` [vincristine] + CS(=O)(=O)c1ccc(C(=O)Nc2ccc(Cl)c(-c3ccccn3)c2)c(Cl)c1 [vismodegib] (first compound 0.0005 µM, partner dose 5 µM) yielded a cell count of 76.4%.

In turn, `CC[C@]1(O)C[C@H]2CN(CCc3c([nH]c4ccccc34)[C@@](C(=O)OC)(c3cc4c(cc3OC)N(C=O)[C@H]3[C@@](O)(C(=O)OC)[C@H](OC(C)=O)[C@]5(CC)C=CCN6CC[C@]43[C@@H]65)C2)C1` [vincristine] + C#Cc1cccc(Nc2ncnc3cc(OCCOC)c(OCCOC)cc23)c1 [erlotinib] (first compound 0.0005 µM, partner dose 4 µM) gave a cell count of 27.8%. For `Cc1cc(Nc2cc(N3CCN(C)CC3)nc(Sc3ccc(NC(=O)C4CC4)cc3)n2)n[nH]1` [Tozasertib] + Cc1cn(-c2cc(NC(=O)c3ccc(C)c(Nc4nccc(-c5cccnc5)n4)c3)cc(C(F)(F)F)c2)cn1 [nilotinib] (first compound 0.03 µM, partner dose 1 µM), the cell count turned out to be 89%.

`Cc1cc(Nc2cc(N3CCN(C)CC3)nc(Sc3ccc(NC(=O)C4CC4)cc3)n2)n[nH]1` [Tozasertib] + O=C(O)C(=O)Nc1sc2c(c1C(=O)O)CCNC2 [TCS401] (first compound 0.03 µM, partner dose 8.33333 µM) returned a cell count of 85.5%. As for `Cc1cc(Nc2cc(N3CCN(C)CC3)nc(Sc3ccc(NC(=O)C4CC4)cc3)n2)n[nH]1` [Tozasertib] + O=S(=O)(c1ccccc1)N(CC(F)(F)F)c1ccc(C(O)(C(F)(F)F)C(F)(F)F)cc1 [T0901317] (first compound 0.03 µM, partner dose 7 µM), the cell count was determined as 76.9%. As to `CC[C@]1(O)C[C@H]2CN(CCc3c([nH]c4ccccc34)[C@@](C(=O)OC)(c3cc4c(cc3OC)N(C=O)[C@H]3[C@@](O)(C(=O)OC)[C@H](OC(C)=O)[C@]5(CC)C=CCN6CC[C@]43[C@@H]65)C2)C1` [vincristine] + O=C(/C=C/c1cccnc1)NCCCCC1CCN(C(=O)c2ccccc2)CC1 [FK866] (first compound 0.0005 µM, partner dose 0.05 µM), the cell count was 46.7%. Compound `Cc1cc(Nc2cc(N3CCN(C)CC3)nc(Sc3ccc(NC(=O)C4CC4)cc3)n2)n[nH]1` [Tozasertib] + OCCn1cc(-c2cnc3nnn(Cc4ccc5ncccc5c4)c3n2)cn1 [PF04217903] (first compound 0.03 µM, partner dose 5 µM) returned a cell count of 87.5%. `CC[C@]1(O)C[C@H]2CN(CCc3c([nH]c4ccccc34)[C@@](C(=O)OC)(c3cc4c(cc3OC)N(C=O)[C@H]3[C@@](O)(C(=O)OC)[C@H](OC(C)=O)[C@]5(CC)C=CCN6CC[C@]43[C@@H]65)C2)C1` [vincristine] + C[C@@H]1CCN(C(=O)CC#N)C[C@@H]1N(C)c1ncnc2[nH]ccc12 [CP690550] (first compound 0.0005 µM, partner dose 5 µM) showed a cell count of 96.3%. Regarding `Cc1cc(Nc2cc(N3CCN(C)CC3)nc(Sc3ccc(NC(=O)C4CC4)cc3)n2)n[nH]1` [Tozasertib] + CCCCCCCCCCCCCCCCCCOP(=O)([O-])OC1CC[N+](C)(C)CC1 [Perifosine] (first compound 0.03 µM, partner dose 2 µM), the cell count turned out to be 95.8%. `CC[C@]1(O)C[C@H]2CN(CCc3c([nH]c4ccccc34)[C@@](C(=O)OC)(c3cc4c(cc3OC)N(C=O)[C@H]3[C@@](O)(C(=O)OC)[C@H](OC(C)=O)[C@]5(CC)C=CCN6CC[C@]43[C@@H]65)C2)C1` [vincristine] + CCCS(=O)(=O)Nc1ccc(F)c(C(=O)c2c[nH]c3ncc(Cl)cc23)c1F [PLX4720] (first compound 0.0005 µM, partner dose 0.4 µM) gave a cell count of 86.7%. Next, `Cc1cc(Nc2cc(N3CCN(C)CC3)nc(Sc3ccc(NC(=O)C4CC4)cc3)n2)n[nH]1` [Tozasertib] + Cc1nc(Nc2ncc(C(=O)Nc3c(C)cccc3Cl)s2)cc(N2CCN(CCO)CC2)n1 [dasatanib] (first compound 0.03 µM, partner dose 0.02 µM): 59.9%.
